# Measured values: the RNAGym collection of RNA variant scans (doi:10.1073/pnas.2313332121)
# Variants at the background level are over-represented here.
# B1: TPR 5TU (parent)
# chain: GGAUCUUCUCGAUCUAACAAAAAAGACAAAUCUGCCACAAAGCUUGAGAGCAUCUUCGGAUGCAGAGGCGGCAGCCUUCGGUGGCGCGAUAGCGCCAACGUUCUCAACUAUGACACGCAAAACGCGUGCUCCGUUGAAUGGAGUUUAUCAUG
# Variants of: B1
# Assay: polymerase ribozyme fitness, log enrichment relative to wild type (log ratio); higher = more active; in vitro selection for triplet polymerase activity
# How it was run: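 Mutant libraries were PCR-built and transcribed for each subunit of a heterodimeric triplet polymerase ribozyme and selected for one round in triplicate at −7 °C, frozen, before gel excision of extended constructs and streptavidin-bead capture. Input and output libraries were Illumina-sequenced, keeping genotypes with ≥10 input reads and ≥1 read per output. Fitness is a logarithmic ratio of genotype to wild-type enrichment, in base 2, using inverse-variance-weighted replicate averages.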
row,Variant,polymerase ribozyme fitness (log ratio)
1,U44A U77G A150G,≤ -4.2
2,U44A U82A,-4.18
3,U44A U144C,-3.62
4,U44C A64U C85G A89G A107C G128A A150C,≤ -4.2
5,U44C A107U,≤ -4.2
6,U44C C57G U82G C85G A113U G140C,≤ -4.2
7,U44C C85A G86A U145A,≤ -4.2
8,U44C G46U A73G C79A A98G,≤ -4.2
9,U44C G58A A64G C93G A119G,≤ -4.2
10,U44C G59A G141C,≤ -4.2
11,U44C G59U G92A U135A,≤ -4.2
12,U44C G86C U90G A97C C99U U146G A150G,≤ -4.2
13,U44C G94A G143C,≤ -4.2
14,U44G A49C C87G A98U,≤ -4.2
15,U44G A49U G67C G83U A89C,≤ -4.2
16,U44G A52G C79A C103A A121U,≤ -4.2
17,U44G A73U C85U U109G,≤ -4.2
18,U44G A91C G126A G143C,≤ -4.2
19,U44G C51U G74A G94C A120U C149G,≤ -4.2
20,U44G C54U C85G G117U A122U,≤ -4.2
21,U44G C57U C87A A91U C118U A138C U144C U146C G152A,≤ -4.2
22,U44G C85G G117U G140C G152C,≤ -4.2
23,U44G C87A C103U C108A A110C C132A,≤ -4.2
24,U44G C87G G88C C114U A137C U144C,≤ -4.2

row,Variant,polymerase ribozyme fitness (log ratio)
1,U44G C87U C96A,≤ -4.2
2,U44G C93A A121U G141A,≤ -4.2
3,U44G G50C U55G G71U G83U A91C A122U A150G,≤ -4.2
4,U44G G58U A98G U144A,≤ -4.2
5,U44G G59C U78C G117U G143C,≤ -4.2
6,U44G G59U C103A C131G,≤ -4.2
7,U44G G65A A66C A91G,≤ -4.2
8,U44G G94A C105G U148A,≤ -4.2
9,U44G U56C C57A G59A C93U A98U,≤ -4.2
10,U45A A47C,-3.93
11,U45A A47G C87A,≤ -4.2
12,U45A A47U C79U C116A U151A,≤ -4.2
13,U45A A47U G65C A66U G86C C87G C131G,≤ -4.2
14,U45A A49G C87U A113U G126A,≤ -4.2
15,U45A A52C C69A C114U,≤ -4.2
16,U45A A52C C75A C87A U135G U148G,≤ -4.2
17,U45A A52C G71A C99A G133U U145G,≤ -4.2
18,U45A A52C U53G G70C G133U G141A,≤ -4.2
19,U45A A66U G71A,≤ -4.2
20,U45A A142G,-2.94
21,U45A C51A G84A,≤ -4.2
22,U45A C51U G74A C95A U135G,≤ -4.2
23,U45A C54A C87A C132U,≤ -4.2
24,U45A C57G G71A C85U G94C A122U,≤ -4.2

row,Variant,polymerase ribozyme fitness (log ratio)
1,U45A C57G U78A G80U C103A C118G,≤ -4.2
2,U45A C63A A119U,≤ -4.2
3,U45A C63U A121C,-3.18
4,U45A C85A A119U,≤ -4.2
5,U45A C85A C87G C114A A137C,≤ -4.2
6,U45A C87U A115U C125U,≤ -4.2
7,U45A C87U C99U A119U,≤ -4.2
8,U45A C93U A98G,≤ -4.2
9,U45A G48A G65A A73U C93A A137G,≤ -4.2
10,U45A G48C A52G U53C C76G A91G A97U C99G U135A,≤ -4.2
11,U45A G50C U53A U56G C108G,≤ -4.2
12,U45A G58A,-1.48
13,U45A G58C C96A U127G,≤ -4.2
14,U45A G59U G74U A121G G141A,≤ -4.2
15,U45A G65A G86U,≤ -4.2
16,U45A G65C C85U U139A,≤ -4.2
17,U45A G67A C85G C95G,≤ -4.2
18,U45A G67C U90C G94C C114U A119U A138C G140U G141C,≤ -4.2
19,U45A G71C U102G C116G,≤ -4.2
20,U45A G80C C87A A91U A142C,≤ -4.2
21,U45A G83U C95U,≤ -4.2
22,U45A G84U U144C,≤ -4.2
23,U45A G88C A113C U134A,≤ -4.2
24,U45A G92C,-3.75

row,Variant,polymerase ribozyme fitness (log ratio)
1,U45A G92U,-2.75
2,U45A U53A C57A C79G G83C C85U U139G U144A,≤ -4.2
3,U45A U56A U139A,≤ -4.2
4,U45A U61A C76A A91C U102A A122U,≤ -4.2
5,U45A U77G G84A A115U A138C,≤ -4.2
6,U45A U78G A110U,≤ -4.2
7,U45A U82A A106G A122G U148G,≤ -4.2
8,U45A U82G C129A U139A U145G,≤ -4.2
9,U45A U102C C105U A119C G143A,≤ -4.2
10,U45A U111G G133C,≤ -4.2
11,U45C A66C G92U U104G,≤ -4.2
12,U45C A91C C96A C114U G133C,≤ -4.2
13,U45C A119C,-0.959
14,U45C C79A A110C C118U A120G C131G,≤ -4.2
15,U45C G80C C85U C87G G92A U144G,≤ -4.2
16,U45C G94U C96G C132U,≤ -4.2
17,U45C U53A U90A C103A C129U G143C,≤ -4.2
18,U45G A49C G50C C87U C96A,≤ -4.2
19,U45G A49G U53A C108A C118G C125G,≤ -4.2
20,U45G A52G G84U G86U U145G,≤ -4.2
21,U45G A91U A107C,≤ -4.2
22,U45G C51A C57A C72G A113G C114G U130G G133C,≤ -4.2
23,U45G C54A G67A C95U,≤ -4.2
24,U45G C54G G71U G84C G100A C125A,≤ -4.2

row,Variant,polymerase ribozyme fitness (log ratio)
1,U45G C54U A119U U146G,-2.19
2,U45G C75G G83U,≤ -4.2
3,U45G C87A C118G C149U,≤ -4.2
4,U45G G46A C57A A60G A120G G133C G143U,≤ -4.2
5,U45G G46C G67U,≤ -4.2
6,U45G G46C G70A U109C U151C,≤ -4.2
7,U45G G50C A122G C129A,≤ -4.2
8,U45G G83A,-0.848
9,U45G G84U,-1.97
10,U45G G136C U139A,≤ -4.2
11,U45G U55G A91C U101A A107G,≤ -4.2
12,U45G U101G C114A,≤ -4.2
13,G46A A49C,≤ -4.2
14,G46A A60C G67C U77G C79A C93G A113C,≤ -4.2
15,G46A A60U C79G G83U U109G C118U A147G,≤ -4.2
16,G46A C51U C76G U148G,≤ -4.2
17,G46A C57U U61A,≤ -4.2
18,G46A C63G G67C C85U,≤ -4.2
19,G46A C63U G86A A91U U101G A106U,≤ -4.2
20,G46A C75G G86U C87G C96A C114A A137U,≤ -4.2
21,G46A C85A A91U G140C,≤ -4.2
22,G46A C85G A106C C125A,≤ -4.2
23,G46A C93G C105U U109G G117C C125G G128C,≤ -4.2
24,G46A C93U,-1.21

row,Variant,polymerase ribozyme fitness (log ratio)
1,G46A C96U G141A G143U,≤ -4.2
2,G46A G50A G58U G68A A91U,≤ -4.2
3,G46A G59C C114U A120G A137C,≤ -4.2
4,G46A G62A C76A C96U U102A C114U A115C C118U,≤ -4.2
5,G46A G67A G84U A97G C99U C116U,≤ -4.2
6,G46A G84A A119C G136A A150G,-3.68
7,G46A G84C C108A,≤ -4.2
8,G46A G84C C132U,≤ -4.2
9,G46A U53A G59A A66C U90C A91U C108G G133C,≤ -4.2
10,G46A U55A,-0.993
11,G46A U55A G58C G84C,-2.84
12,G46A U55G C79A C85G A97U,≤ -4.2
13,G46A U56G A91G U148A,≤ -4.2
14,G46A U61A C96G U102G C116A A137G,≤ -4.2
15,G46A U61G C76A A89C C93U G100A U144C,≤ -4.2
16,G46A U61G C103A C118G,≤ -4.2
17,G46A U90G G94U A107G C131G U146A,≤ -4.2
18,G46A U130A,≤ -4.2
19,G46C A49U C54A G92U U148A,≤ -4.2
20,G46C A64G G88C C99G,≤ -4.2
21,G46C A66C C85U C93G C118U,≤ -4.2
22,G46C C51G A52U U78G C93G C105G A110C U148G U151C,≤ -4.2
23,G46C C54U A66G G94A C95A G143A,≤ -4.2
24,G46C C85U A110U,-4.17

row,Variant,polymerase ribozyme fitness (log ratio)
1,G46C C85U G88C G140C,≤ -4.2
2,G46C C87G U90C,≤ -4.2
3,G46C C87U C93A C116A C125U,≤ -4.2
4,G46C C87U U101G U109G,≤ -4.2
5,G46C C96U A98U A106G,-0.573
6,G46C C105G,1.29
7,G46C G48A C87G G88U C105U U135G G143A C149U,≤ -4.2
8,G46C G48C C85G U135A,≤ -4.2
9,G46C G50C C57U C76A G84A C125G,≤ -4.2
10,G46C G50C U55G C85U C95G A97U G133A,≤ -4.2
11,G46C G50U A52C A60U G80C C95U A150G,≤ -4.2
12,G46C G59A G67C G80A G83U A147U,≤ -4.2
13,G46C G59A U82A C85G A110C A113U G126U G128A,≤ -4.2
14,G46C G59C G88A,≤ -4.2
15,G46C G68A U101G G117U,≤ -4.2
16,G46C U55A C76U A89C U104A,≤ -4.2
17,G46C U55G G58U,-0.983
18,G46C U61G G81C C114U C116G A147G,≤ -4.2
19,G46C U111C,≤ -4.2
20,G46C U144C,-1.66
21,G46U A47G A66C C76A A91U C116G,≤ -4.2
22,G46U A52C A89U G94A G133C,≤ -4.2
23,G46U A52G C85A U127C G143A,≤ -4.2
